The text below walks through data of the supplement of paper PMC9588766.

Where a name gives a salt, the structure may show the parent alone. Over roughly 1,900 compounds, “cell viability of compound + 1 nM pemigatinib relative to pemigatinib-only (DMSO) wells” has its median near 0.95; the lowest 2% begin near 0.22. The list shows a part of the results.

In the test the test system is PDC-DUC18828. The test can be described thus: cell viability of compound + 1 nM pemigatinib relative to pemigatinib-only (DMSO) wells (fraction); PDC-DUC18828 is a patient-derived cholangiocarcinoma cell line; higher = less growth inhibition. Conditions: first compound 1 µM; pemigatinib concentration 1 nM; 72 h. The method, then:
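Selleck Bioactive library screen in the patient-derived FGFR2 fusion-positive ICC cell line PDC-DUC18828 (500 cells/well). Each compound was tested at 1 uM with 1 nM pemigatinib, in triplicate, for 72 h. Viability was read by CellTiter-Glo and normalised to plate DMSO controls. Value is the paper's averaged normalised viability.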
As to `C[C@H]1CCC/C=C/[C@@H]2C[C@H](O)C[C@H]2[C@H](O)/C=C/C(=O)O1` [Brefeldin A] + CCN1C(=O)N(c2c(F)c(OC)cc(OC)c2F)Cc2cnc3[nH]c(CN4CCOCC4)cc3c21 [pemigatinib], the cell viability is 0.016.
`COc1cc(-n2c(=S)[nH]c3ccccc3c2=O)c(Cl)cc1Cl` [Mdivi-1] + CCN1C(=O)N(c2c(F)c(OC)cc(OC)c2F)Cc2cnc3[nH]c(CN4CCOCC4)cc3c21 [pemigatinib]: the cell viability turned out to be 0.952.
Turning to `CCCN1C[C@H](CSC)C[C@@H]2c3cccc4[nH]cc(c34)C[C@H]21` [Pergolide mesylate] + CCN1C(=O)N(c2c(F)c(OC)cc(OC)c2F)Cc2cnc3[nH]c(CN4CCOCC4)cc3c21 [pemigatinib], the cell viability is 0.901.
In the case of `CC(=O)Nc1ccc(Cc2ccc(NC(C)=O)cc2)cc1` + CCN1C(=O)N(c2c(F)c(OC)cc(OC)c2F)Cc2cnc3[nH]c(CN4CCOCC4)cc3c21 [pemigatinib] it was 1.04; in that of `C[N+](C)(C)CCCCCCCCCC[N+](C)(C)C` [Decamethonium Bromide] + CCN1C(=O)N(c2c(F)c(OC)cc(OC)c2F)Cc2cnc3[nH]c(CN4CCOCC4)cc3c21 [pemigatinib], 0.94; in that of `O=C(O)CNC(=O)c1c(O)c2ccccc2n(Cc2ccccc2)c1=O` + CCN1C(=O)N(c2c(F)c(OC)cc(OC)c2F)Cc2cnc3[nH]c(CN4CCOCC4)cc3c21 [pemigatinib], 0.876.
In the case of `CCNC(=O)C[C@@H]1N=C(c2ccc(Cl)cc2)c2cc(OC)ccc2-n2c(C)nnc21` + CCN1C(=O)N(c2c(F)c(OC)cc(OC)c2F)Cc2cnc3[nH]c(CN4CCOCC4)cc3c21 [pemigatinib] it was 0.925.
In the case of `CN1c2ccccc2C(NCCCCCCC(=O)O)c2ccc(Cl)cc2S1(=O)=O` (centres undefined) [Tianeptine sodium] + CCN1C(=O)N(c2c(F)c(OC)cc(OC)c2F)Cc2cnc3[nH]c(CN4CCOCC4)cc3c21 [pemigatinib] it was 0.986.
Take `NC(=O)CN1CC(O)CC1=O` (centres undefined) [Oxiracetam] + CCN1C(=O)N(c2c(F)c(OC)cc(OC)c2F)Cc2cnc3[nH]c(CN4CCOCC4)cc3c21 [pemigatinib]: the cell viability was found to be 0.995.
Regarding `COc1cc([C@@H]2c3cc4c(cc3[C@H](O)[C@H]3COC(=O)[C@@H]23)OCO4)cc(OC)c1OC` [Picropodophyllin (PPP)] + CCN1C(=O)N(c2c(F)c(OC)cc(OC)c2F)Cc2cnc3[nH]c(CN4CCOCC4)cc3c21 [pemigatinib], the cell viability was determined as 0.42.
Next, `CN1CCC(c2c[nH]c3ccc(O)cc23)CC1` + CCN1C(=O)N(c2c(F)c(OC)cc(OC)c2F)Cc2cnc3[nH]c(CN4CCOCC4)cc3c21 [pemigatinib]: 0.932; `C1=C2CCCN[C@H]2[C@@H]2C[C@H]1[C@H]1CCCCN1C2` [Aloperine] + CCN1C(=O)N(c2c(F)c(OC)cc(OC)c2F)Cc2cnc3[nH]c(CN4CCOCC4)cc3c21 [pemigatinib]: 0.913.
Next, `O=C(O)CCCc1ccc(N(CCCl)CCCl)cc1` [Chloroambucil] + CCN1C(=O)N(c2c(F)c(OC)cc(OC)c2F)Cc2cnc3[nH]c(CN4CCOCC4)cc3c21 [pemigatinib]: 0.958; `CC[C@@H](C(N)=O)N1CCCC1=O` [Levetiracetam] + CCN1C(=O)N(c2c(F)c(OC)cc(OC)c2F)Cc2cnc3[nH]c(CN4CCOCC4)cc3c21 [pemigatinib]: 0.944; `COc1ccc(C(=O)N2CCCC2=O)cc1` [Aniracetam] + CCN1C(=O)N(c2c(F)c(OC)cc(OC)c2F)Cc2cnc3[nH]c(CN4CCOCC4)cc3c21 [pemigatinib]: 0.918.
Next, `O=C(O[C@H]1C[C@H]2CC[C@@H](C1)[N+]21CCCC1)C(O)(c1ccccc1)c1ccccc1` [Trospium chloride] + CCN1C(=O)N(c2c(F)c(OC)cc(OC)c2F)Cc2cnc3[nH]c(CN4CCOCC4)cc3c21 [pemigatinib]: 0.901.
Take `CN(C)Cc1c[nH]c2ccccc12` [Gramine] + CCN1C(=O)N(c2c(F)c(OC)cc(OC)c2F)Cc2cnc3[nH]c(CN4CCOCC4)cc3c21 [pemigatinib]: the cell viability came to 0.986.
In the case of `NCC(O)c1ccc(O)cc1` (racemic) [(+,-)-Octopamine HCl] + CCN1C(=O)N(c2c(F)c(OC)cc(OC)c2F)Cc2cnc3[nH]c(CN4CCOCC4)cc3c21 [pemigatinib] it was 0.939; in that of `C[C@@H]1O[C@@H](O[C@H]2C[C@@H](O)[C@]3(CO)[C@H]4[C@H](O)C[C@]5(C)[C@@H](C6=CC(=O)OC6)CC[C@]5(O)[C@@H]4CC[C@]3(O)C2)[C@H](O)[C@H](O)[C@H]1O` [Ouabain] + CCN1C(=O)N(c2c(F)c(OC)cc(OC)c2F)Cc2cnc3[nH]c(CN4CCOCC4)cc3c21 [pemigatinib], 0.109.
On to `CCN(C)C(=O)Oc1cccc([C@H](C)N(C)C)c1` [Rivastigmine Tartrate] + CCN1C(=O)N(c2c(F)c(OC)cc(OC)c2F)Cc2cnc3[nH]c(CN4CCOCC4)cc3c21 [pemigatinib], for which the cell viability is 1.05.
Next, `CCC1(c2ccc(N)cc2)CCC(=O)NC1=O` (centres undefined) [Aminoglutethimide] + CCN1C(=O)N(c2c(F)c(OC)cc(OC)c2F)Cc2cnc3[nH]c(CN4CCOCC4)cc3c21 [pemigatinib]: 1.03; `C[C@]12CC[C@H](O)C[C@@H]1CC[C@@H]1[C@@H]2CC[C@]2(C)C(=O)CC[C@@H]12` [Epiandrosterone] + CCN1C(=O)N(c2c(F)c(OC)cc(OC)c2F)Cc2cnc3[nH]c(CN4CCOCC4)cc3c21 [pemigatinib]: 0.972; `C[N+]1(C)[C@@H]2C[C@@H](OC(=O)[C@H](CO)c3ccccc3)C[C@H]1[C@@H]1O[C@@H]12` [Methscopolamine] + CCN1C(=O)N(c2c(F)c(OC)cc(OC)c2F)Cc2cnc3[nH]c(CN4CCOCC4)cc3c21 [pemigatinib]: 0.984.
As for `CN(C)C(=O)Oc1cc(OC(=O)N(C)C)cc(C(O)CNC(C)(C)C)c1` (centres undefined) [Bambuterol HCl] + CCN1C(=O)N(c2c(F)c(OC)cc(OC)c2F)Cc2cnc3[nH]c(CN4CCOCC4)cc3c21 [pemigatinib], the cell viability worked out at 0.99.
